What all share (assay): glycan array binding signal (z-score within array); higher = stronger binding
What all share (settings): glycan notation: IUPAC condensed, linker removed

Experiment [1] has as its target Gal(b1-4)GlcNAc(b1-3)Gal(b1-4)GlcNAc(b1-3)Gal(b1-4)GlcNAc. The method in brief:
(§1)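 The binding signal is a Z-score computed within each array and averaged over linkers. Arrays of the same protein sequence at different concentrations or buffers were also averaged together. Data originate from 3228 arrays in the Consortium for Functional Glycomics database, kept only where the protein sequence was available.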

Experiment [2] deals with Gal(b1-4)GlcNAc(b1-3)Gal(b1-4)GlcNAc(b1-3)Gal(b1-4)GlcNAc(b1-2)Man(a1-3)[Gal(b1-4)GlcNAc(b1-3)Gal(b1-4)GlcNAc(b1-3)Gal(b1-4)GlcNAc(b1-2)Man(a1-6)]Man(b1-4)GlcNAc(b1-4)GlcNAc. The method in brief: as §1
Experiment [3] addresses Gal(b1-4)GlcNAc(b1-3)Gal(b1-4)GlcNAc(b1-3)Gal(b1-4)GlcNAc(b1-2)Man(a1-3)[Gal(b1-4)GlcNAc(b1-3)Gal(b1-4)GlcNAc(b1-3)Gal(b1-4)GlcNAc(b1-2)Man(a1-6)]Man(b1-4)GlcNAc(b1-4)[Fuc(a1-6)]GlcNAc. The method in brief: as §1
For experiment [4], the target named is Gal(b1-4)GlcNAc(b1-3)Gal(b1-4)GlcNAc(b1-3)Gal(b1-4)GlcNAc(b1-2)[Gal(b1-4)GlcNAc(b1-3)Gal(b1-4)GlcNAc(b1-3)Gal(b1-4)GlcNAc(b1-6)]Man(a1-6)[Gal(b1-4)GlcNAc(b1-3)Gal(b1-4)GlcNAc(b1-3)Gal(b1-4)GlcNAc(b1-2)Man(a1-3)]Man(b1-4)GlcNAc(b1-4)[Fuc(a1-6)]GlcNAc. The method in brief: as §1
The target in experiment [5] is Gal(b1-4)GlcNAc(b1-3)Gal(b1-4)GlcNAc(b1-3)Gal(b1-4)GlcNAc(b1-3)Gal(b1-4)GlcNAc(b1-2)Man(a1-3)[Gal(b1-4)GlcNAc(b1-3)Gal(b1-4)GlcNAc(b1-3)Gal(b1-4)GlcNAc(b1-3)Gal(b1-4)GlcNAc(b1-2)Man(a1-6)]Man(b1-4)GlcNAc(b1-4)GlcNAc. The method in brief: as §1
Experiment [6] deals with Gal(b1-4)GlcNAc(b1-3)Gal(b1-4)GlcNAc(b1-3)Gal(b1-4)GlcNAc(b1-3)Gal(b1-4)GlcNAc(b1-2)Man(a1-3)[Gal(b1-4)GlcNAc(b1-3)Gal(b1-4)GlcNAc(b1-3)Gal(b1-4)GlcNAc(b1-3)Gal(b1-4)GlcNAc(b1-2)Man(a1-6)]Man(b1-4)GlcNAc(b1-4)[Fuc(a1-6)]GlcNAc. The method in brief: as §1
Experiment [7] deals with Gal(b1-4)GlcNAc(b1-3)Gal(b1-4)GlcNAc(b1-3)Gal(b1-4)GlcNAc(b1-3)Gal(b1-4)GlcNAc(b1-2)[Gal(b1-4)GlcNAc(b1-3)Gal(b1-4)GlcNAc(b1-3)Gal(b1-4)GlcNAc(b1-3)Gal(b1-4)GlcNAc(b1-6)]Man(a1-6)[Gal(b1-4)GlcNAc(b1-3)Gal(b1-4)GlcNAc(b1-3)Gal(b1-4)GlcNAc(b1-3)Gal(b1-4)GlcNAc(b1-2)Man(a1-3)]Man(b1-4)GlcNAc(b1-4)[Fuc(a1-6)]GlcNAc. The method in brief:
as §1

Experiment [8] has as its target Gal(b1-4)GlcNAc(b1-3)Gal(b1-4)GlcNAc(b1-3)Gal(b1-4)GlcNAc(b1-3)Gal(b1-4)GlcNAc(b1-3)Gal(b1-4)GlcNAc(b1-2)Man(a1-3)[Gal(b1-4)GlcNAc(b1-3)Gal(b1-4)GlcNAc(b1-3)Gal(b1-4)GlcNAc(b1-3)Gal(b1-4)GlcNAc(b1-3)Gal(b1-4)GlcNAc(b1-2)Man(a1-6)]Man(b1-4)GlcNAc(b1-4)GlcNAc. The method in brief:
as §1

Experiment [9] deals with Gal(b1-4)GlcNAc(b1-3)Gal(b1-4)GlcNAc(b1-3)Gal(b1-4)GlcNAc(b1-3)Gal(b1-4)GlcNAc(b1-3)Gal(b1-4)GlcNAc(b1-2)Man(a1-3)[Gal(b1-4)GlcNAc(b1-3)Gal(b1-4)GlcNAc(b1-3)Gal(b1-4)GlcNAc(b1-3)Gal(b1-4)GlcNAc(b1-3)Gal(b1-4)GlcNAc(b1-2)Man(a1-6)]Man(b1-4)GlcNAc(b1-4)[Fuc(a1-6)]GlcNAc. The method in brief:
as §1

The target in experiment [10] is Gal(b1-4)GlcNAc(b1-3)Gal(b1-4)GlcNAc(b1-3)Gal(b1-4)GlcNAc(b1-3)Gal(b1-4)GlcNAc(b1-3)Gal(b1-4)GlcNAc(b1-2)[Gal(b1-4)GlcNAc(b1-3)Gal(b1-4)GlcNAc(b1-3)Gal(b1-4)GlcNAc(b1-3)Gal(b1-4)GlcNAc(b1-3)Gal(b1-4)GlcNAc(b1-6)]Man(a1-6)[Gal(b1-4)GlcNAc(b1-3)Gal(b1-4)GlcNAc(b1-3)Gal(b1-4)GlcNAc(b1-3)Gal(b1-4)GlcNAc(b1-3)Gal(b1-4)GlcNAc(b1-2)Man(a1-3)]Man(b1-4)GlcNAc(b1-4)[Fuc(a1-6)]GlcNAc. The method in brief: as §1

Experiment [11] concerns the target Gal(b1-4)GlcNAc(b1-3)Gal(b1-4)GlcNAc(b1-3)Gal(b1-4)GlcNAc(b1-3)Gal(b1-4)GlcNAc(b1-3)Gal(b1-4)GlcNAc(b1-3)Gal(b1-4)GlcNAc(b1-2)Man(a1-3)[Gal(b1-4)GlcNAc(b1-3)Gal(b1-4)GlcNAc(b1-3)Gal(b1-4)GlcNAc(b1-3)Gal(b1-4)GlcNAc(b1-3)Gal(b1-4)GlcNAc(b1-3)Gal(b1-4)GlcNAc(b1-2)Man(a1-6)]Man(b1-4)GlcNAc(b1-4)GlcNAc. The method in brief: as §1
Experiment [12] deals with Gal(b1-4)GlcNAc(b1-3)Gal(b1-4)GlcNAc(b1-3)GalNAc. The method in brief: as §1
Experiment [13] deals with Gal(b1-4)GlcNAc(b1-3)Gal(b1-4)GlcNAc(b1-3)[Gal(b1-4)GlcNAc(b1-3)Gal(b1-4)GlcNAc(b1-6)]GalNAc. The method in brief: as §1
The target of experiment [14] is Gal(b1-4)GlcNAc(b1-3)Gal(b1-4)GlcNAc(b1-6)[Gal(b1-3)]GalNAc. The method in brief: as §1
The target in experiment [15] is Gal(b1-4)GlcNAc(b1-3)Gal(b1-4)[Fuc(a1-3)]GlcNAc(b1-3)Gal(b1-4)[Fuc(a1-3)]GlcNAc. The method in brief:
as §1

Experiment [16] deals with Gal(b1-4)GlcNAc(b1-3)GalNAc. The method in brief:
as §1

The target in experiment [17] is Gal(b1-4)GlcNAc(b1-3)[Fuc(a1-3)GlcNAc(b1-6)]Gal(b1-4)Glc. The method in brief:
as §1

In experiment [18] the target is Gal(b1-4)GlcNAc(b1-3)[Gal(b1-4)GlcNAc(b1-6)]Gal(b1-4)GlcNAc. The method in brief:
as §1

Experiment [19] has as its target Gal(b1-4)GlcNAc(b1-3)[GlcNAc(b1-6)]Gal(b1-4)GlcNAc. The method in brief:
as §1

This is one part of the list.

B1: Sebin2 (Coprinopsis cinerea), A8PE78 (protein)
chain: MTTPFYAYCHNVQDDNTWRLGLVFANRSTADEWWRAISEATSSIPITKSITRVTPQYYTHDIRVWNMYNFFVDGNIKSISDKFRGRLFITLEYDRSGRGVSVFPPLHIVDHVSGNWYYIRSKTAPHLFWFYDETRNAIYASKEKRTRFKVSIRNPSPQTPKDAIMINSDDVVIHIKESLYVGVDSYLGHIIPTRAYRTFKFGELEGGAIAGIEVAENAEERCSSTFDGASLYFVGPDSSSPGEPWELV
Regarding B1, the “glycan array binding signal (z-score)” value is -0.165 in experiment [1]; -0.131 in [2]; -0.122 in [3]; 0.573 in [4]; -0.118 in experiment [5]; -0.071 in experiment [6]. The “glycan array binding signal (z-score)” value in [7] is -0.1; in [8] it was -0.589; in [9], -0.14; in [10], 0.421; in experiment [11] it was 0.143; in [12], 0.049. For the same molecule, the “glycan array binding signal (z-score)” value in experiment [13] was 0.177; in [14], 0.106; in experiment [15] it was -0.148; in [16], -0.264; in experiment [17], -0.328; in experiment [18], -0.371. For the same molecule, the “glycan array binding signal (z-score)” value in experiment [19] is -0.795.

Source of the values: the supplement of paper PMC8728848.
